According to the supplement of paper PMC12067093, “Discovery and optimisation of a covalent ligand for TRIM25 and its application to targeted protein ubiquitination” (Chemical Science, 2025):
The full data set covers some 21,000 targets. This sample favours those with the largest changes.

Compound: CC1Cc2ccccc2N1C(=O)C1CCCN(C1)C(=O)CCl (mixture of isomers) [TRIM25 ligand 11 (diastereomer mixture)]
Assay: probe-labelled cysteine peptide fold change vs DMSO (competition) (log2 fold change); higher = less target engagement (more negative = stronger competition)
Conditions: THP-1, incubation time: 4 h
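Further: competitive chemoproteomic profiling in live THP-1 cells with an iodoacetamide desthiobiotin (IA-DTB) probe, comparing probe-labelled peptide intensities in compound-treated cells against DMSO-treated controls.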

UniProt P48147, sequence (P48147 whole entry, looked up): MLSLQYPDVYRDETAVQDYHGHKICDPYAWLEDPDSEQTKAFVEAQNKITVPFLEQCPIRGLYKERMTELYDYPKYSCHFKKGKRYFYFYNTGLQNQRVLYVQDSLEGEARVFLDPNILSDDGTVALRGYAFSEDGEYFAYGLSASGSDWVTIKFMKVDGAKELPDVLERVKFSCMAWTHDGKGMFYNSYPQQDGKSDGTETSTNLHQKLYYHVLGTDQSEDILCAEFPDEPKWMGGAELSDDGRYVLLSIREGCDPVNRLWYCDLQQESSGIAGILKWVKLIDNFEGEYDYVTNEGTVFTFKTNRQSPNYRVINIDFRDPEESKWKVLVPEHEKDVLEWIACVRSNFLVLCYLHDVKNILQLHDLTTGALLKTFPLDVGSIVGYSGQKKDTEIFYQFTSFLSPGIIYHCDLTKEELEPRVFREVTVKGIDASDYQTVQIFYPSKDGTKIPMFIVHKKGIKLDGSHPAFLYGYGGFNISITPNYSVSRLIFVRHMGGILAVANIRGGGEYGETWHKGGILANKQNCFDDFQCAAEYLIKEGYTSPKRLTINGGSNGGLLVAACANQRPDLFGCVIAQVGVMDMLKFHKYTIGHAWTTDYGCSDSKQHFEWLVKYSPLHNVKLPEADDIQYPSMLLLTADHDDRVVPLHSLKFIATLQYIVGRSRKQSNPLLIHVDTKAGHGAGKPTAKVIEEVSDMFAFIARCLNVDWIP
UniProt Q7RTV0, sequence (Q7RTV0 whole entry, looked up): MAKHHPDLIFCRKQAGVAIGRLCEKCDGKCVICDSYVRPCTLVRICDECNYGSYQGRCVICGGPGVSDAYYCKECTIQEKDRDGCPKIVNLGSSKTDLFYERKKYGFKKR
UniProt Q14181, sequence (Q14181 whole entry, looked up): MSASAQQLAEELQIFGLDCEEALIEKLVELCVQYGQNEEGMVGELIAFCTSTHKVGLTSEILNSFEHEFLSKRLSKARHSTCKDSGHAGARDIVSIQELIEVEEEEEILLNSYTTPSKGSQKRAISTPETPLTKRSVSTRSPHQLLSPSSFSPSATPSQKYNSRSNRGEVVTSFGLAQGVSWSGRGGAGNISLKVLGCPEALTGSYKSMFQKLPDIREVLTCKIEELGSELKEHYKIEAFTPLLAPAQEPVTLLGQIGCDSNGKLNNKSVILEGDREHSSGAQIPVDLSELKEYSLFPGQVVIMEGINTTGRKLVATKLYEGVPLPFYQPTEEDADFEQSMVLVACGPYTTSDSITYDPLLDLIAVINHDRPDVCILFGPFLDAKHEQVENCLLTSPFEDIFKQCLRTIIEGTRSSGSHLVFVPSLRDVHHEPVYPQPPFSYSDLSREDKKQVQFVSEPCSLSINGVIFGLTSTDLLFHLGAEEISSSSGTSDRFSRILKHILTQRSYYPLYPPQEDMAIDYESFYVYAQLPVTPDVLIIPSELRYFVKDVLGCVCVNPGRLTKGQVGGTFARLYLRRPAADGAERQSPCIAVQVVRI
UniProt P17858, sequence (P17858 whole entry, looked up): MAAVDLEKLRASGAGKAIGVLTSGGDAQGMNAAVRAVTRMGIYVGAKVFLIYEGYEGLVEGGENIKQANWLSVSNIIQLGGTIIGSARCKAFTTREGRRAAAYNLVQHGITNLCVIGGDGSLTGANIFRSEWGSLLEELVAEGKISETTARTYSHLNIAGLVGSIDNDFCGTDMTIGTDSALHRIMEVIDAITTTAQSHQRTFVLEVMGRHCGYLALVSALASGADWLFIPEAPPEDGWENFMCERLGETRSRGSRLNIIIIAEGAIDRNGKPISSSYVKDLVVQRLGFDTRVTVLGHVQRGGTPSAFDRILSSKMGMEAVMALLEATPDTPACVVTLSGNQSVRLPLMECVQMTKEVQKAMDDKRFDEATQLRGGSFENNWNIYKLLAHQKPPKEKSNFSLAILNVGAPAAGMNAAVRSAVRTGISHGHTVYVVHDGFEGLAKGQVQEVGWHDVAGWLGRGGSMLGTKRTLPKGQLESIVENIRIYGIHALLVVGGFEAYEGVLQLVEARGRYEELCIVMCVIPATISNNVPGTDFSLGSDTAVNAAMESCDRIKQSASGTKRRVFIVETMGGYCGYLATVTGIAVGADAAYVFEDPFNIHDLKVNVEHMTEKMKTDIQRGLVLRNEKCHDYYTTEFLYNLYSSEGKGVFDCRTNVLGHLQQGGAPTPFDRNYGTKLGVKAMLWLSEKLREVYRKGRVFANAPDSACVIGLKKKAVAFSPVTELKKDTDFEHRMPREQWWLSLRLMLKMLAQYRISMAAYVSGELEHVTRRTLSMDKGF
UniProt Q9UBT6, sequence (Q9UBT6 whole entry, looked up): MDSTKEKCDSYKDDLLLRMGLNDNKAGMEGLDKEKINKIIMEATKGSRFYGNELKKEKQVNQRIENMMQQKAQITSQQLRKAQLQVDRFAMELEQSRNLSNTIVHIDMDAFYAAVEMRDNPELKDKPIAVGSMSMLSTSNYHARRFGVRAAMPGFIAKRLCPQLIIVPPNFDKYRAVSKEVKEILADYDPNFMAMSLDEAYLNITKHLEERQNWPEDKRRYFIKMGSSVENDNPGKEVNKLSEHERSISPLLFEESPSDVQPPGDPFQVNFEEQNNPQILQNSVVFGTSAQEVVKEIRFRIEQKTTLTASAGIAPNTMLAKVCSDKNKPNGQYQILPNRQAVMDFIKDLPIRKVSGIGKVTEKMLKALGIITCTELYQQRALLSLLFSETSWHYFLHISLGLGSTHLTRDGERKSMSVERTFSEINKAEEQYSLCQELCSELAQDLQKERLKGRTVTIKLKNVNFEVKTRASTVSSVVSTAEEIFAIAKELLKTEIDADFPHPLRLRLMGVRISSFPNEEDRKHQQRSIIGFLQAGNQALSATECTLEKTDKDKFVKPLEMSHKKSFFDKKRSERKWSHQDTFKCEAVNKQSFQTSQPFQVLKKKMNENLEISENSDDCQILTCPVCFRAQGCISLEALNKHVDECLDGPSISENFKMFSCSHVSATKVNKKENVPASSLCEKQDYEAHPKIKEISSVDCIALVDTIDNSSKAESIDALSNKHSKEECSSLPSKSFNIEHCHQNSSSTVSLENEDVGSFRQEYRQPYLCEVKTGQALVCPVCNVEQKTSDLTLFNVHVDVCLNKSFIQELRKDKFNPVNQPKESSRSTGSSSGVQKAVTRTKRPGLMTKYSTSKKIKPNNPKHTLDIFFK
UniProt P07737, sequence (P07737 whole entry, looked up): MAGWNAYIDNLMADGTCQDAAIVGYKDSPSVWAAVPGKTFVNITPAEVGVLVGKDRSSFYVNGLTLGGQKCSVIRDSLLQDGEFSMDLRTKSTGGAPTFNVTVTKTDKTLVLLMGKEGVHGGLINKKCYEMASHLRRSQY
UniProt P09884, sequence (P09884 whole entry, looked up): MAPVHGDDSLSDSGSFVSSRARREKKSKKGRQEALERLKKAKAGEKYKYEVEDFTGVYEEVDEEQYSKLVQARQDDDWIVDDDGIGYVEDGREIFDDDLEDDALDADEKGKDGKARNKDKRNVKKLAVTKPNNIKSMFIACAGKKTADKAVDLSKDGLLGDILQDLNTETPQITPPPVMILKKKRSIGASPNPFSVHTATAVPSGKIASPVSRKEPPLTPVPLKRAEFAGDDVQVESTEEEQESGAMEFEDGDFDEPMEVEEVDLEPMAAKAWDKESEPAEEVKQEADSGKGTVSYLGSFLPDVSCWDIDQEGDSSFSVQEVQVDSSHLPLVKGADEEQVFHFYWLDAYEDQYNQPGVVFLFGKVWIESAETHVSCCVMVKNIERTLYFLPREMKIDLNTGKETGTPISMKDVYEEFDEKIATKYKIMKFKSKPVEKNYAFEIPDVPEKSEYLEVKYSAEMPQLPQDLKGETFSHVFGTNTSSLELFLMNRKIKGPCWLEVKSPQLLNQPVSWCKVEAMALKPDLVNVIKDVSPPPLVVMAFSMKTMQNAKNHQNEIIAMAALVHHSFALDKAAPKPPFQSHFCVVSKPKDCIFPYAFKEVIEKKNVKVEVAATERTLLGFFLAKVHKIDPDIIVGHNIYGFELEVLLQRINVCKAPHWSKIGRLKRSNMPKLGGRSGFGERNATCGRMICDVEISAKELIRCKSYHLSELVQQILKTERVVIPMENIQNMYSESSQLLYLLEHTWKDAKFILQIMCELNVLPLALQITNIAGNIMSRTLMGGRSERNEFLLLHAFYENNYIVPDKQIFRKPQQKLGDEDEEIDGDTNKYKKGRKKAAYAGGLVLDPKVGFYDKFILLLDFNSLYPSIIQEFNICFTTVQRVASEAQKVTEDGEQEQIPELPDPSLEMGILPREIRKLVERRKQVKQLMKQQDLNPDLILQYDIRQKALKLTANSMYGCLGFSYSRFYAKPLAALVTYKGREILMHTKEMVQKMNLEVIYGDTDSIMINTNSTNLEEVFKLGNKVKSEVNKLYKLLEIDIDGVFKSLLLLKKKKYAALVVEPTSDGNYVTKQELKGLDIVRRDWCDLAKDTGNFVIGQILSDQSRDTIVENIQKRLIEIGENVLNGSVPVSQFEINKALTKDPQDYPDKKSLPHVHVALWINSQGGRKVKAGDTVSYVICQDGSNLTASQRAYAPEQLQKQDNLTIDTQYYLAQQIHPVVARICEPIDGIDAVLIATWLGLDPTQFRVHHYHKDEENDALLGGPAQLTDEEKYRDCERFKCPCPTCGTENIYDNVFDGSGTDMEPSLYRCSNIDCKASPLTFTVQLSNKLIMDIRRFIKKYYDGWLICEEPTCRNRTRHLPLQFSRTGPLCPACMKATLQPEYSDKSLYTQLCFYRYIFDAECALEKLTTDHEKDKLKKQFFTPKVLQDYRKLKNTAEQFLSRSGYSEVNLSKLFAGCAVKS

| Target | probe-labelled cysteine peptide fold change (10 µM) | probe-labelled cysteine peptide fold change (50 µM) |
| --- | --- | --- |
| PEX5_P50542_11_ELVEAECGGANPLMK (UniProt P50542) | 0.224 | -0.00266 |
| POLK_Q9UBT6_545_SIIGFLQAGNQALSATECTLEK (UniProt Q9UBT6) | -0.109 | -0.758 |
| POLE_Q07864_558_SDIPCR (UniProt Q07864) | 0.218 | 0.196 |
| PFKL_P17858_708_VFANAPDSACVIGLK (UniProt P17858) | 0.138 | -0.0211 |
| POLD1_P28340_263_FMVDTDIVGCNWLELPAGK (UniProt P28340) | -0.011 | -0.00675 |
| POLA2_Q14181_392_HEQVENCLLTSPFEDIFK (UniProt Q14181) | 0.268 | -0.00578 |
| POLA1_P09884_1180_AGDTVSYVICQDGSNLTASQR (UniProt P09884) | -0.229 | 0.0571 |
| PFN1_P07737_128_CYEMASHLRR (UniProt P07737) | -0.732 | -0.452 |
| PHF5A_Q7RTV0_30+40_CVICDSYVRPCTLVR (UniProt Q7RTV0) | -0.054 | 0.00899 |
| PREP_P48147_57_ITVPFLEQCPIR (UniProt P48147) | 0.0699 | -0.0713 |
